# Reference: PubChem BioAssay AID463173 (ICCB-Longwood Screening Facility, Harvard Medical School, 2010)
# Out of some 52,000 compounds screened, about 4,300 (8.3%) were called active. Rule as the data show it: active = survival mostly below about 52% (no sharp cut-off); inactive = mostly above about 56%. Some of the results follow.
# System: DeltatarO mutant
# Test: growth inhibition of S. aureus wild type versus tarO mutant, primary screen, teichoic acid synthesis inhibitors, RN4220, OD600 (AID 463173)
# Details: OD600, 18 h, stronger effect = lower value, screened at 18.75 µg/mL (by protocol)
row,SMILES,survival
1,COc1ccc(NC(=O)c2c(NCc3ccc(C)o3)sc3c2CCC(C)C3)c(OC)c1 (stereo unspecified),inactive: 82%
2,COc1ccc(OC)c(NC(=O)CSc2ccnc(=O)[nH]2)c1,inactive: 78%
3,Cn1c(=O)oc2cc(S(=O)(=O)CCC(=O)N3CCN(c4ccccc4)CC3)ccc21,inactive: 94%
4,CCOc1ccc(C(=O)Nc2cccc(NC(=O)c3ccco3)c2)cc1Cl,inactive: 55%
5,COc1ccccc1CNC(=O)c1ccc(N2CCCC2)c(NC(=O)NCc2ccccc2)c1,inactive: 78%
6,O=C(O)c1ccc(CSc2n[nH]c(-c3ccco3)n2)cc1,inactive: 101%
7,O=C(COc1ccccc1F)OCc1cc(=O)n2nc(-c3cccs3)sc2n1,inactive: 119%
8,CCC(C(=O)N1CCN(c2ccccc2)CC1)n1nc(C)n2c(cc3sccc32)c1=O (stereo unspecified),inactive: 101%
9,CCc1nn2c(=O)cc(COC(=O)CNC(=O)c3ccccc3)nc2s1,inactive: 123%
10,O=C(Nc1ccc(Br)cc1)C1CCN(c2cnccn2)CC1,inactive: 67%
11,COc1cc(OC)c(Nc2cc(C)nc3ncnn23)cc1Cl,inactive: 97%
12,COc1ccc(Cn2c(=O)[nH]c3cc(C(=O)N4CCN(c5cc(C)ccc5C)CC4)ccc3c2=O)cc1,inactive: 73%
13,COc1ccc(C)cc1NC(=O)c1cc(S(=O)(=O)NC2CCCCCC2)ccc1F,inactive: 80%
14,NC(=O)c1cc(S(=O)(=O)N2CCN(c3ccc(F)cc3)CC2)cs1,inactive: 88%
15,CCC(CC)c1nn2c(=O)cc(COc3ccc(NC(=O)c4ccccc4Cl)cc3)nc2s1,inactive: 94%
16,Cc1ccccc1CNC(=O)C1CCN(c2nn3cc(-c4ccc(F)cc4)nc3s2)CC1,inactive: 93%
17,CC1CCCCN1CCCNC(=O)Cn1ncc2c([nH]c3ccccc32)c1=O (stereo unspecified),inactive: 124%
18,Cc1cccc(CNS(=O)(=O)c2ccc3[nH]c(=O)ccc3c2)c1,inactive: 99%
19,CCCOc1ccc(-c2nn(-c3ccccc3)cc2C2NC(=O)NC(C)=C2C(=O)OC(C)C)cc1 (stereo unspecified),inactive: 54%

row,SMILES,survival
1,O=C1Nc2c(c(=O)[nH]c(=O)n2-c2ccccc2)C1(NS(=O)(=O)c1ccc(Cl)cc1)C(F)(F)F (stereo unspecified),inactive: 141%
2,Cc1ccc(NC(=O)Cn2c(=O)n(CCCCCC(=O)NCc3ccc(F)cc3)c(=O)c3sccc32)cc1C,inactive: 74%
3,O=C(Cc1ccc(F)cc1)NC1CC(=O)N(c2ccccc2)C1 (stereo unspecified),inactive: 88%
4,CCOc1ccc(Cn2nnc3c(=O)[nH]c(C4CCN(C(=O)c5ccccc5)CC4)nc32)cc1,active: 4%
5,COc1cc(-c2nnc(SCC(=O)NCc3ccccc3Cl)o2)cc(OC)c1OC,inactive: 106%
6,Cc1nc(N)sc1C(N)=O,inactive: 82%
7,COc1ccc(-c2cnnn2-c2ccc(NC(=O)c3c(F)cccc3F)cc2)cc1,inactive: 98%
8,COc1ccc(-c2cnnn2-c2ccc(NC(=O)c3ccc(S(=O)(=O)N(C)C)cc3)cc2)cc1,inactive: 81%
9,CC(=O)c1cc(-c2ccccc2)n(CC(=O)NC2CCCCC2)c1C,inactive: 80%
10,Cc1cc(C)c2c(CC(=O)Nc3c(C(=O)Nc4ccc(Cl)cc4)oc4ccccc34)coc2c1,inactive: 77%
11,COc1ccc(CNC(=O)CN2C(=O)c3cccnc3Oc3ccc(C)cc32)cc1,inactive: 98%
12,CCc1cccc(C)c1NC(=O)CSc1nnc(CC)n2c1cc1occc12,inactive: 67%
13,Cc1cc(OCC(=O)N(Cc2sccc2C)C2CCS(=O)(=O)C2)ccc1Cl (stereo unspecified),inactive: 81%
14,COc1ccc(Nc2cc(C(=O)NCc3ccccc3OC)c3ccccc3n2)cc1,active: -5%
15,COc1ccc(N2CCN(c3oc(/C=C/c4cc(OC)c(OC)c(OC)c4)nc3C#N)CC2)cc1,active: 49%
16,COc1ccc(F)cc1S(=O)(=O)NCCc1sc2nc(-c3ccc(F)cc3)nn2c1C,inactive: 90%
17,CCc1nnc(SCC(=O)Nc2ccc(F)cc2F)c2cc3sc(C)cc3n12,inactive: 103%
18,CCOC(=O)c1ccccc1NC(=O)N(C)CCc1c(C)nn(CC)c1C,inactive: 78%
19,Cc1cc(C)cc(Oc2nc3c(c(=O)n(C)c(=O)n3C)n2Cc2ccc(F)cc2)c1,inactive: 76%

row,SMILES,survival
1,CCc1ccc(CNC(=O)CN2CCSc3ccccc32)cc1,inactive: 86%
2,CCOC(=O)N1CCc2c(sc3c2c(=O)n(CCc2ccccc2)c(=O)n3Cc2c(F)cccc2Cl)C1,inactive: 85%
3,O=C(CN1C(=O)COc2ccc(S(=O)(=O)N3CCCCCC3)cc21)NCc1ccc(F)cc1,inactive: 68%
4,Cc1ccc(NC(=O)CSc2nc3n[nH]c(C)c3c(=N)n2-c2cccc(C)c2)cc1,active: -5%
5,CCCSCCCNC(=O)c1ccc2nc(Cc3ccccc3)oc2c1,inactive: 69%
6,CCSc1ncc(Cl)c(C(=O)Nc2ccc(S(=O)(=O)N(C)c3ccccc3)cc2)n1,inactive: 71%
7,COc1ccccc1CNC(=O)c1ccc(-c2nc(CN3CCc4ccccc43)c(C)o2)cc1,inactive: 75%
8,Cc1ccc(OCC(=O)Nc2ccc3nc(SCC(=O)N4CCc5ccccc54)sc3c2)cc1,inactive: 57%
9,COc1ccc(NC(=O)c2cccn2-c2nnc(N3CCCCC3)s2)cc1,inactive: 71%
10,O=C(O)CCCN1CCCC1=O,inactive: 81%
11,Cc1cc(C)cc(OCC(=O)Nc2ccc(-c3nc4ccccc4o3)cc2)c1,inactive: 51%
12,Cc1cc(C)c2c(CC(=O)N(Cc3ccccc3)C3CCS(=O)(=O)C3)coc2c1 (stereo unspecified),inactive: 76%
13,CCC(=O)N1CCc2cc(S(=O)(=O)NC(C(=O)Nc3ccc(C(C)=O)cc3)C(C)C)ccc21 (stereo unspecified),inactive: 94%
14,Cn1c(=O)oc2cc(S(=O)(=O)Nc3ccc(C(=O)O)cc3)ccc21,inactive: 109%
15,CCC(=O)N1CCc2cc(Br)cc(S(=O)(=O)N3CCCC(C(=O)N(C)c4ccc(Br)cc4)C3)c21 (stereo unspecified),inactive: 118%
16,Clc1ccc(N2CCN(c3ncnc4c3nc3n4CCCC3)CC2)cc1,inactive: 101%
17,COc1ccc(-c2nc(CS(=O)CC(=O)NCc3ccccc3OC)c(C)o2)cc1 (stereo unspecified),inactive: 124%
18,COc1ccc2c(c1)CC(C(=O)NCCCN1CCN(c3ccc(F)cc3)CC1)CO2 (stereo unspecified),inactive: 79%
